Measured values: the antibiotic and cytotoxicity screens of Wong et al. (2023)
The other results are listed elsewhere or left out.

Tested on: HSkMC (human skeletal muscle cells)
Experiment: cytotoxicity call (relative viability < 0.9)
Conditions: 10 µM

| SMILES | cytotoxicity call |
| --- | --- |
| Cc1noc(C)c1NC(=O)N(C)C[C@@H]1OCCCC[C@@H](C)Oc2ccc(NS(=O)(=O)c3ccc(Cl)cc3)cc2C(=O)N([C@@H](C)CO)C[C@H]1C | inactive |
| C[C@@H]1CN([C@@H](C)CO)C(=O)c2cc(NC(=O)c3ccccc3)ccc2O[C@@H](C)CCCCO[C@@H]1CN(C)C(=O)NC1CCCCC1 | inactive |
| C[C@@H]1CC=CC[C@@H](c2cccc(Cl)c2)NC(=O)[C@@H](Cc2ccccc2)N(C)C(=O)c2ccccc2O1 | inactive |
| C[C@H](CO)N1C[C@H](C)[C@H](CN(C)C(=O)Nc2ccc(F)cc2)Oc2c(NC(=O)c3ccc(-c4nccs4)cc3)cccc2C1=O | inactive |
| C[C@@H]1CN([C@H](C)CO)C(=O)c2cc(NC(=O)Cc3ccccc3)ccc2O[C@H]1CN(C)Cc1ccc(Cl)c(Cl)c1 | inactive |
| C[C@@H]1CN([C@H](C)CO)C(=O)c2cccc(NC(=O)NC3CCCCC3)c2O[C@@H]1CN(C)Cc1ccc(-c2ccccc2)cc1 | inactive |
| CCOC(=O)c1c[nH]cnc1=O | inactive |
| CCS(=O)(=O)N1C[C@]2(CCN(CC2)S(=O)(=O)c2cn(cn2)C)c2c(n(c3cc(ccc23)OC)C)[C@@H]1CO | inactive |
| Cc1c(-c2ccccc2)n(C[C@@H](O)CN)c2ccccc12 | inactive |
| C[C@@H]1CCCCO[C@@H](CN(C)S(=O)(=O)c2ccccc2)[C@@H](C)CN([C@@H](C)CO)C(=O)c2cc(NS(C)(=O)=O)ccc2O1 | inactive |
| Nc1ncnc2nc(N3CCCCC3)[nH]c12 | inactive |
| Cc1noc(C)c1NC(=O)N(C)C[C@@H]1OCCCC[C@H](C)Oc2ccc(NS(=O)(=O)c3cccs3)cc2C(=O)N([C@H](C)CO)C[C@@H]1C | inactive |
